# Some of the results follow.
# What was measured:
# Test in all cases: glycan array binding signal (z-score within array); higher = stronger binding
# Conditions in all cases: glycan notation: IUPAC condensed, linker removed
# Fuc(a1-2)Gal = target: Fuc(a1-2)Gal
# Outline: (§1)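 Glycan array binding is given as a within-array Z-score, which can be read as non-binding when negative. The arrays, 3228 of them, came from the Consortium for Functional Glycomics database and were retained only where the protein sequence was available. Z-scores were averaged across arrays of the same protein sequence at different concentrations or buffers and across linkers.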
# Fuc(a1-2)Gal(b1-3)GalNAc = target: Fuc(a1-2)Gal(b1-3)GalNAc
# Outline: as §1
# [1] = target: Fuc(a1-2)Gal(b1-3)GalNAc(a1-3)[Fuc(a1-2)]Gal(b1-4)Glc
# Outline: as §1
# [2] = target: Fuc(a1-2)Gal(b1-3)GalNAc(a1-3)[Fuc(a1-2)]Gal(b1-4)GlcNAc
# Outline: as §1
# [3] = target: Fuc(a1-2)Gal(b1-3)GalNAc(b1-3)Gal
# Outline: as §1
# [4] = target: Fuc(a1-2)Gal(b1-3)GalNAc(b1-3)Gal(a1-4)Gal(b1-4)Glc
# Outline: as §1
# [5] = target: Fuc(a1-2)Gal(b1-3)GalNAc(b1-4)[Neu5Ac(a2-3)]Gal(b1-4)Glc
# Outline: as §1
# Fuc(a1-2)Gal(b1-3)GlcNAc = target: Fuc(a1-2)Gal(b1-3)GlcNAc
# Outline: as §1
# [6] = target: Fuc(a1-2)Gal(b1-3)GlcNAc(b1-2)Man(a1-3)[Fuc(a1-2)Gal(b1-3)GlcNAc(b1-2)Man(a1-6)]Man(b1-4)GlcNAc(b1-4)GlcNAc
# Outline: as §1
# [7] = target: Fuc(a1-2)Gal(b1-3)GlcNAc(b1-2)Man(a1-3)[Fuc(a1-2)Gal(b1-3)GlcNAc(b1-2)Man(a1-6)]Man(b1-4)GlcNAc(b1-4)[Fuc(a1-6)]GlcNAc
# Outline: as §1
# [8] = target: Fuc(a1-2)Gal(b1-3)GlcNAc(b1-3)Gal(b1-4)Glc
# Outline: as §1
# [9] = target: Fuc(a1-2)Gal(b1-3)GlcNAc(b1-3)GalNAc
# Outline: as §1
# [10] = target: Fuc(a1-2)Gal(b1-3)GlcNAc(b1-3)[Fuc(a1-2)Gal(b1-3)GlcNAc(b1-6)]GalNAc
# Outline: as §1
# [11] = target: Fuc(a1-2)Gal(b1-3)GlcNAc(b1-3)[Fuc(a1-3)[Gal(b1-4)]GlcNAc(b1-6)]Gal(b1-4)Glc
# Outline: as §1
# [12] = target: Fuc(a1-2)Gal(b1-3)GlcNAc(b1-3)[Gal(b1-4)GlcNAc(b1-6)]Gal(b1-4)Glc
# Outline: as §1
# [13] = target: Fuc(a1-2)Gal(b1-3)GlcNAc(b1-3)[Neu5Ac(a2-6)Gal(b1-4)GlcNAc(b1-6)]Gal(b1-4)Glc
# Outline: as §1
# [14] = target: Fuc(a1-2)Gal(b1-3)GlcNAc6S
# Outline: as §1
# [15] = target: Fuc(a1-2)Gal(b1-3)[Fuc(a1-4)]GlcNAc
# Outline: as §1
# [16] = target: Fuc(a1-2)Gal(b1-3)[Fuc(a1-4)]GlcNAc(b1-2)Man(a1-3)[Fuc(a1-2)Gal(b1-3)[Fuc(a1-4)]GlcNAc(b1-2)Man(a1-6)]Man(b1-4)GlcNAc(b1-4)GlcNAc
# Outline: as §1
# [17] = target: Fuc(a1-2)Gal(b1-3)[Fuc(a1-4)]GlcNAc(b1-2)Man(a1-6)[Fuc(a1-2)Gal(b1-3)[Fuc(a1-4)]GlcNAc(b1-2)Man(a1-3)]Man(b1-4)GlcNAc(b1-4)[Fuc(a1-6)]GlcNAc
# Outline: as §1
# [18] = target: Fuc(a1-2)Gal(b1-3)[Fuc(a1-4)]GlcNAc(b1-3)[Fuc(a1-3)[Gal(b1-4)]GlcNAc(b1-6)]Gal(b1-4)Glc
# Outline: as §1
# [19] = target: Fuc(a1-2)Gal(b1-3)[Fuc(a1-4)]GlcNAc(b1-3)[Gal(b1-4)GlcNAc(b1-6)]Gal(b1-4)Glc
# Outline: as §1
# Fuc(a1-2)Gal(b1-4)Glc = target: Fuc(a1-2)Gal(b1-4)Glc
# Outline: as §1
# Fuc(a1-2)Gal(b1-4)Glc6S = target: Fuc(a1-2)Gal(b1-4)Glc6S
# Outline: as §1
# Fuc(a1-2)Gal(b1-4)GlcNAc = target: Fuc(a1-2)Gal(b1-4)GlcNAc
# Outline: as §1
# [20] = target: Fuc(a1-2)Gal(b1-4)GlcNAc(b1-2)Man
# Outline: as §1
# [21] = target: Fuc(a1-2)Gal(b1-4)GlcNAc(b1-2)Man(a1-3)[Fuc(a1-2)Gal(b1-4)GlcNAc(b1-2)Man(a1-6)]Man(b1-4)GlcNAc(b1-4)GlcNAc
# Outline: as §1
# [22] = target: Fuc(a1-2)Gal(b1-4)GlcNAc(b1-2)Man(a1-3)[Fuc(a1-2)Gal(b1-4)GlcNAc(b1-2)Man(a1-6)]Man(b1-4)GlcNAc(b1-4)[Fuc(a1-6)]GlcNAc
# Outline: as §1
# [23] = target: Fuc(a1-2)Gal(b1-4)GlcNAc(b1-2)[Fuc(a1-2)Gal(b1-4)GlcNAc(b1-4)]Man(a1-3)[Fuc(a1-2)Gal(b1-4)GlcNAc(b1-2)Man(a1-6)]Man(b1-4)GlcNAc(b1-4)GlcNAc
# Outline: as §1
# [24] = target: Fuc(a1-2)Gal(b1-4)GlcNAc(b1-3)Gal(b1-4)GlcNAc
# Outline: as §1
binder,measurement,setting,value
"CvGal1 (Crassostrea virginica), A7Y0I5 (protein) MTYQISKISQPFTSYIPNGLHIGKHLLLRGRVSYGTEAFAINLQQNPEPCNGEVAFHFNPRPGEQQCVRNSFDGGSWMDEERDQPHFPFDEGRSFTLRIEVAEEGFRTYVNGKPYVNFSHRLDLGNVHYLYLTEGAEFYDISYQDRYTLPYKSEIPQQMNVGKAVRIRGASQDNDGFSVNFACDPDNENCAFHFNPRPNEGVVVRNANLGGWGDEERDYEAEFPFHPYNYFDAMFICTDDKYLVHVNDKYFTEFNHRGGVDASSFFNIVGNLDIQDVEYFEPLEDDFVKTIPSGLVKGDVLIFRGFMKPGGDTFSINFMNGYSVEDDIAFHLNPRVGEGQVVMNCCMGGAWGDEEREDIPSPLADREPFEVKVVVKKNKFKVYVNGKKCMKFAARGNLEDIKGVNIKGEAYVYEVKLERKLEDSWEYLPGGFRVGGWVVVQAIPKKGSEGFAINFRTGSDEDSDIAFHFNPRLQENCTIRNSCAGGAWGGEERDQPDFPFEKKDTCEIAIQAQPDRFVTYVNGKRYIEFNHRLPLESITCVELTGRADFFEPKFF",glycan array binding signal (z-score),Fuc(a1-2)Gal,-0.242
same,glycan array binding signal (z-score),Fuc(a1-2)Gal(b1-3)GalNAc,-0.291
same,glycan array binding signal (z-score),[1],3
same,glycan array binding signal (z-score),[2],6.13
same,glycan array binding signal (z-score),[3],-0.263
same,glycan array binding signal (z-score),[4],-0.242
same,glycan array binding signal (z-score),[5],-0.259
same,glycan array binding signal (z-score),Fuc(a1-2)Gal(b1-3)GlcNAc,-0.084
same,glycan array binding signal (z-score),[6],0.602
same,glycan array binding signal (z-score),[7],-0.288
same,glycan array binding signal (z-score),[8],0.324
same,glycan array binding signal (z-score),[9],-0.244
same,glycan array binding signal (z-score),[10],-0.258
same,glycan array binding signal (z-score),[11],2.22
same,glycan array binding signal (z-score),[12],1.11
same,glycan array binding signal (z-score),[13],-0.181
same,glycan array binding signal (z-score),[14],-0.252
same,glycan array binding signal (z-score),[15],-0.22
same,glycan array binding signal (z-score),[16],-0.188
same,glycan array binding signal (z-score),[17],-0.197
same,glycan array binding signal (z-score),[18],-0.21
same,glycan array binding signal (z-score),[19],-0.256
same,glycan array binding signal (z-score),Fuc(a1-2)Gal(b1-4)Glc,-0.245
same,glycan array binding signal (z-score),Fuc(a1-2)Gal(b1-4)Glc6S,-0.243
same,glycan array binding signal (z-score),Fuc(a1-2)Gal(b1-4)GlcNAc,-0.185
same,glycan array binding signal (z-score),[20],-0.262
same,glycan array binding signal (z-score),[21],0.157
same,glycan array binding signal (z-score),[22],-0.053
same,glycan array binding signal (z-score),[23],0.459
same,glycan array binding signal (z-score),[24],0.07
